Laboratory results published in the supplement of paper PMC3334620.
Whole data set: some 33,000 sequences, median “E-score (-0.5 to 0.5)” near -0.012, cut for the highest 2% near 0.27. The list shows a part of the results.

The sequences below were run against T1, Vhr1 (UniProt P40522) (assay: PBM E-score (8-mer binding enrichment) (E-score (-0.5 to 0.5)); higher = stronger / more preferred TF binding; most listed sequences are background and not binding sites). Details: protein concentration: 200 nM; construct: GST-full length.
T1 sequence: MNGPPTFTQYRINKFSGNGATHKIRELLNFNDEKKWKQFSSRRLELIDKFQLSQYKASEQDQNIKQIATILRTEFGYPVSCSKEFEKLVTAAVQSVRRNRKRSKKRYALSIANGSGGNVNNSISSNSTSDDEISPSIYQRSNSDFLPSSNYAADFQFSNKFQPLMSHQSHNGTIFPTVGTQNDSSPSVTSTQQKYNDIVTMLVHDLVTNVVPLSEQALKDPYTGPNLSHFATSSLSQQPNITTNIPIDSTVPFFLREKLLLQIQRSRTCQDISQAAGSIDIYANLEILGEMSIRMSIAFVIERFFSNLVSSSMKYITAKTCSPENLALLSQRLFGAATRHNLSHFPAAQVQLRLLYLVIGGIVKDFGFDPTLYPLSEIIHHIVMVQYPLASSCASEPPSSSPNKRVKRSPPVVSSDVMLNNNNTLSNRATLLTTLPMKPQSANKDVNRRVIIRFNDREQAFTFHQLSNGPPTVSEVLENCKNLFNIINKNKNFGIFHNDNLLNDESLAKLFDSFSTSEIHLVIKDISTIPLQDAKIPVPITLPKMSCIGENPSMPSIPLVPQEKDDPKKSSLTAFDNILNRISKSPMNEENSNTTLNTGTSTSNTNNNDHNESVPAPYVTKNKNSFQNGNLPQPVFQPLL
Outline: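 E-scores (a modified Wilcoxon-Mann-Whitney statistic) were assigned by the Universal PBM Analysis Suite to every ungapped eight-base word pooled with its reverse complement. The input came from universal all-10-mer Agilent arrays made double-stranded by primer extension and probed with GST-tagged yeast transcription factors at about 100-200 nM. Fluorescent anti-GST detected bound protein, and masliner normalised the scans.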

Row | Sequence | PBM E-score
1 | AGAGCCAC | 0.0667
2 | AAGCACTT | -0.136
3 | GCCTAGCC | -0.247
4 | CGTGACCA | 0.0998
5 | CGGCTAGC | -0.0236
6 | TCCCCGCA | 0.0911
7 | GGCCAAAC | -0.155
8 | CATTGGCA | 0.16
9 | AGTCTTGG | 0.099
10 | AACTCACT | 0.0454
11 | CACATCGA | 0.0352
12 | CAAAGTTG | -0.0567
13 | AAGAACAT | 0.0425
14 | AAGGGGAT | -0.0141
15 | ATATTCGC | -0.0174
16 | GTCCGAGA | -0.00966
17 | AATCCAGC | -0.025
18 | GATACCCC | -0.0429
19 | ACTCATCT | 0.199
20 | CTGGAGAA | -0.236
21 | CAATTCGG | -0.118
22 | AGCCCCAA | -0.0947
23 | CCACACTA | 0.17
24 | CCTATGTC | 0.0253
25 | ACGCGCAG | -0.0946

Row | Sequence | PBM E-score
26 | GAAATCGC | -0.0428
27 | AACTGTTC | 0.022
28 | CCCCCTAG | -0.316
29 | CAGATAGG | -0.0435
30 | AGCGATAC | 0.0878
31 | CTGAATAC | 0.145
32 | TCATGCAA | 0.154
33 | CAGAAAAG | -3e-05
34 | AAATCTCC | -0.325
35 | AAGTCGAT | -0.0165
36 | CTCTTTTC | -0.268
37 | CTGAGAAA | -0.269
38 | GACGTGTA | -0.0138
39 | AACACGAA | 0.118
40 | CTCCCGGA | 0.0804
41 | AAGATGCG | 0.0144
42 | AGAGGACT | -0.191
43 | AGGTTTAC | -0.112
44 | ATCCGATA | -0.175
45 | GGGTATCA | 0.0427
46 | CACGACAA | 0.024
47 | CTCCCCTC | 0.204
48 | AAGTACAA | 0.0236
49 | GCTGAAAA | -0.161
50 | AACACCAC | 0.0462

Row | Sequence | PBM E-score
51 | AGTAGTCA | 0.401
52 | CGGATCCA | 0.298
53 | GAAGGCTA | -0.161
54 | CTATGAAC | 0.107
55 | ATGCTTGA | 0.0306
56 | ATCAGCAA | 0.0473
57 | AAAGACCC | -0.0397
58 | TCGATCCA | -0.0434
59 | ATGCGCGA | 0.0397
60 | ACTGGAGA | -0.131
61 | ATCACAAG | 0.0788
62 | TACTCGCA | 0.263
63 | AAGCTACC | 0.00426
64 | ACACTCAA | 0.185
65 | GTTACGGA | -0.0079
66 | GGCCCGAC | 0.117
67 | AACTCTTA | -0.0247
68 | GACATCGA | -0.0724
69 | CGCACCGC | 0.107
70 | ATCGAGGA | 0.0625
71 | ATGTATTA | 0.152
72 | GCTATACC | 0.018
73 | AGCACCTG | -0.171
74 | CGCTCACC | 0.081
75 | ACCTGCCC | 0.0405

Row | Sequence | PBM E-score
76 | AATGCCAA | 0.00241
77 | AACGGTCC | -0.263
78 | AAACAAGC | -0.0656
79 | GAGACAAC | 0.125
80 | AAAGCAGT | 0.135
81 | ACTCAGAA | 0.0966
82 | AGGTTAAT | -0.0678
83 | AACGAGGG | 0.0227
84 | CTTATCTC | -0.129
85 | CAGACCTG | -0.0881
86 | GAGTGTCC | 0.0875
87 | AATAACCT | -0.11
88 | AGGCATAC | 0.0467
89 | ACATTCAA | -0.0253
90 | AGCTTACC | -0.199
91 | CCATCATA | 0.0955
92 | GAGGTGAC | 0.242
93 | CGGAATGC | -0.0192
94 | ACGTCACG | -0.153
95 | AATGGCCC | -0.305
96 | ACTCTCTG | 0.108
97 | ATTTGTTC | 0.165
98 | CGCACGCC | 0.167
99 | GGTCGTAA | -0.242
100 | AAGGTGCG | -0.0754

Row | Sequence | PBM E-score
101 | CCGGGACA | -0.0176
102 | GCTGTACC | -0.00431
103 | AGGATTAG | 0.0355
104 | AGTATCTC | 0.107
105 | AAAACATA | -0.118
106 | GACGGATC | -0.0953
107 | AATACGTG | 0.0623
108 | GACTTTGC | -0.105
109 | CCATTCCC | 0.0713
110 | CGTGAACG | -0.289
111 | CTAGGATA | 0.0079
112 | ACGCTATG | -0.0962
113 | AAAACGTA | 0.00296
114 | CGTTCACC | -0.0315
115 | ATTGATTG | 0.0691
116 | GCTTTAAC | -0.104
117 | ATAAATTG | 0.256
118 | ATCCAGGG | -0.0888
119 | AGTCCGGG | 0.103
120 | CGTCGCCA | -0.168
121 | CTGCCTAC | 0.117
122 | GGACCCAA | -0.0927
123 | GCTATTCA | -0.0143
124 | TAACCGTA | -0.122
125 | CCCGCGCG | 0.216

Row | Sequence | PBM E-score
126 | GAGAGAAA | -0.304
127 | GCCAGCTA | -0.0877
128 | CGGGTGAA | 0.0779
129 | GGCCGGAC | -0.117
130 | ACGGCCGG | -0.0486
131 | TAAGCGAA | 0.0495
132 | AATCTTGC | 0.0371
133 | ACATTTGA | 0.0557
134 | CATAGGCC | -0.0766
135 | CTACATAA | -0.204
136 | GTTGCAAC | -0.0673
137 | TATAACCA | 0.17
138 | CTAAAGTC | -0.165
139 | CCTGGAGC | -0.0438
140 | ACTATTAC | 0.0484
141 | TAATTAGA | -0.21
142 | AATGCCGG | -0.22
143 | ACACGTTC | -0.0702
144 | TGACATCA | 0.0259
145 | ACCATCGA | 0.0778
146 | GTCAGCAA | 0.0775
147 | AGCCATTA | 0.101
148 | AAGAAACC | 0.0271
149 | AAAAATAT | -0.122
150 | GCGATCAC | 0.154

Row | Sequence | PBM E-score
151 | AAGAGCTA | -0.0476
152 | CTTGGCGA | -0.192
153 | AGACCAAC | 0.0107
154 | CAAGGATG | -0.0593
155 | GGCTCAAA | -0.178
156 | CCAACCTC | 0.098
157 | ACTCGCCC | 0.0982
158 | CTGTACAC | -0.013
159 | ACGTTCAC | -0.187
160 | ACTATAGC | 0.00988
161 | CGGAAATC | -0.00291
162 | CTCGACGC | 0.0904
163 | TAAGATTA | 0.0418
164 | CCAGATGG | 0.033
165 | CCATCTAC | 0.0805
166 | GGTAGGAC | -0.0932
167 | AGGTCACG | -0.0701
168 | ATATTAGC | 0.0706
169 | ATAGCGGC | -0.00437
170 | CCTAGCAC | -0.177
171 | AATGACAC | 0.0353
172 | CATAGAGA | 0.0124
173 | CCGGACAG | -0.0095
174 | ACCACCGC | -0.0757
175 | CAATTACA | 0.135

Row | Sequence | PBM E-score
176 | AATGGCAA | -0.102
177 | AGACGCTA | -0.205
178 | CCCGCCTC | 0.212
179 | CCCGGAAG | -0.0845
180 | ATGGCTCG | 0.231
181 | CAGCATGC | 0.108
182 | CGACAAGA | 0.138
183 | CTCACTCA | 0.0981
184 | TGCGCGCA | 0.29
185 | ATCCTTCC | -0.168
186 | ATAGGGAA | -0.0981
187 | GGCACTCA | -0.22
188 | CGCAAAGA | 0.0308
189 | ATTAATGC | 0.107
190 | GAATGCAC | 0.109
191 | ACCCGCTC | -0.233
192 | ATGGATCG | 0.169
193 | GCTGCTCA | -0.165
194 | CACAAGAG | 0.0643
195 | AGAACTAC | -0.0664
196 | CACCGCTG | 0.0535
197 | GAAGCCAA | -0.0844
198 | AGCCCGGG | 0.0967
199 | AATCGCCC | -0.0276
200 | AGGATCAT | 0.059

Row | Sequence | PBM E-score
201 | GCGGGGTA | -0.06
202 | TCGGACGA | -0.063
203 | ACTAAAAT | -0.0643
204 | AGCAACTG | 0.00583
205 | CTATTCCA | 0.077
206 | AATCCAGA | 0.0151
207 | ATGCGGCG | -0.0219
208 | GTCCTGAA | -0.0879
209 | AACTCGTG | 0.15
210 | AAACTGTT | -0.107
211 | AACATTCT | -0.0607
212 | CTGGACAC | -0.0232
213 | CAGAAGAA | -0.164
214 | TAGCAAGA | -0.0971
215 | ATTTGGAC | -0.244
216 | GCTACTAC | 0.131
217 | CGGTCATA | -0.0676
218 | AAGCACGT | 0.0424
219 | TACAATGA | 0.172
